Among all 48,000 compounds or so, about 120 (0.25%) were called active. Roughly 4% stayed inconclusive and do not appear here. The call rests on the fitted dose curve; in most records, active means well fitted activation curve with a large enough effect; inconclusive means small, poorly fitted or top-dose-only effect, or another doubt; inactive means no such curve, though single readings can be large or run the other way. This is one part of the list.
Test: Primary qHTS for Identification of Small Molecule Activators of Huntingtin-Antisense Promoter Activity; further: nearly all actives have a fitted effect of over 55% in size
Details: HEK293 HTT-AS promoter firefly luciferase reporter, 24 h; series mostly up to 57.5 µM; activity change, positive = activation: at the top concentration
Summary of the method: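 Firefly luciferase signal from promoter-reporter HEK293 cells was scaled between vehicle (0%) and zero RLU (-100%). Compounds were tested at final concentrations of up to 57.5 uM over 24 h at 37 degrees C. PTC124 at 50 uM final served as control inhibitor.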

SMILES | activity change, positive = activation
COc1cccc(NC(=O)CN2C=NS(=O)(=O)c3ccccc32)c1 | inactive: -9.44%
COc1cccc(-c2nc3c(c(SCC(=O)Nc4cccc(C)c4C)n2)Cc2c(CO)cnc(C)c2O3)c1 | inactive: -14.2%
Cc1cccc(CCn2c(=O)c3ccccc3n(Cc3ccccc3C)c2=O)c1 | inactive: -9.26%
COc1ccc2c(c1)c1c(c(=O)n(Cc3ccccc3)c(=O)n1CC(=O)Nc1ccccc1F)n2C | inactive: -16.7%
CCOC(=O)c1cnc(NCc2ccc(OC)cc2OC)c2ccccc12 | inactive: -20.6%
CCOc1ccccc1NC(=O)N1CC(C)Oc2ccc(Cl)cc21 (stereo unspecified) | inactive: -25.6%
Cc1ccc(OC(=O)CSc2nnc(-c3ccc4c(c3)OCO4)o2)c(C)c1 | inactive: -34.9%
Cc1cccn2c(=O)cc(COc3ccc(NC(=O)COc4ccc(F)cc4)cc3)nc12 | inactive: 0.0124%
CCOC(=O)C1=C(CN(CC)Cc2ccccc2)NC(=O)NC1c1ccc(OC)cc1 (stereo unspecified) | inactive: -9.64%
COC(=O)c1c(-c2ccc(Cl)cc2)noc1N1CCN(c2ccccc2F)CC1 | inactive: -18.6%
CCCCNC(=O)c1ccc2c(c1)NC(=O)C(C(C)C)N2 (stereo unspecified) | inactive: -19%
COc1ccc2c(c1)c1c(c(=O)n(-c3ccc(F)c(Cl)c3)c(=O)n1Cc1ccccc1F)n2C | inactive: -14.2%
COc1ccccc1NC(=O)C(=O)c1cc(C)n(-c2cc(C)cc(C)c2)c1C | inactive: 26.5%
N#Cc1c(-n2ncnc2-c2cccc(Cl)c2)sc2c1CCCCC2 | inactive: -21% [at 11.5 µM, percent change from vehicle, -100% = no light]
O=C1CN(C(=O)c2cccc(Br)c2)C(c2ccccc2)c2cc(Cl)ccc2N1 (stereo unspecified) | inactive: -32.7%
CC(NC(=O)CCc1cn(Cc2ccccc2Cl)c2ccccc12)c1ccccc1 (stereo unspecified) | inactive: -18.2%
O=C(NCCc1ccccc1)c1ccc(CSc2nc3cccnc3n2Cc2ccccc2)cc1 | inactive: -6.6%
CC(C)CN(c1ccccc1)S(=O)(=O)c1nnc(NC(=O)C2CCCCC2)s1 | inactive: -9.47%
O=C(NCCO)C(=O)NCC(c1ccc2c(c1)OCO2)N1CCOCC1 (stereo unspecified) | inactive: -0.0745%
COc1ccc(/C=C/c2nc(C#N)c(N3CCC(C(N)=O)CC3)o2)cc1OC | inactive: -12%
Cc1ccc(-c2nc(CS(=O)(=O)CC(=O)NC(C)CCc3ccccc3)c(C)o2)cc1 (stereo unspecified) | inactive: -29.8%

SMILES | activity change, positive = activation
O=C(CCS(=O)(=O)c1ccccc1)N(Cc1cccnc1)c1nc2c(F)cccc2s1 | inactive: 8.78%
COc1ccc(C(CC(=O)Nc2ccccn2)N2Cc3ccccc3C2=O)cc1OC (stereo unspecified) | inactive: -16.8%
CCc1ccccc1NC(=O)Cn1nnc(C(=O)NCc2ccco2)c1N | inactive: -18.5%
CCOC(=O)c1nnc2c(-c3ccc(Cl)cc3)c(C)nn2c1N | inactive: -0.0851%
CCOCCCNC(=O)c1ccc(-c2nc(CS(=O)(=O)c3ccccc3)c(C)o2)cc1 | inactive: -18.4%
CNC(=O)C1CCCN(c2nnc(C)c3c(C)n(-c4ccccc4)nc23)C1 (stereo unspecified) | inactive: -5.96%
CCOC(=O)C1CCN(c2cc3c(cc2NC(=O)c2ccccc2Cl)n(C)c(=O)n3C)CC1 | inactive: -29.7%
O=C(O)CCc1ccc(-c2ccc(Br)cc2)n1-c1ccccc1O | inactive: -16%
CCCCN(CC)CCNC(=O)Cn1cnc2sc(C)c(S(=O)(=O)N3CCN(c4ccccc4OC)CC3)c2c1=O | inactive: 9.19%
CC(C)Cc1nn2cc(-c3cccc(Br)c3)nc2s1 | inactive: -32.2%
CCOc1ccc(N2CC(c3nc4ccccc4n3CCOc3ccc(OC)cc3)CC2=O)cc1 (stereo unspecified) | inactive: -22.4%
O=C(Nc1ccc(F)c(Cl)c1)c1cc(S(=O)(=O)NCc2ccc3c(c2)OCO3)ccc1F | inactive: -30.6%
Cc1cc2nc(-c3ccc(NC(=O)c4ccc(OCC(C)C)cc4)cc3)oc2cc1C | inactive: 0.915%
CCOc1cccc2sc(N(Cc3cccnc3)C(C)=O)nc12 | inactive: -22%
O=C(c1ccccc1)N1CCC(c2nc3ccccc3o2)CC1 | inactive: -17.9%
CN(C)CCC=C1c2ccccc2COc2ccc(CC(=O)O)cc21 | inactive: 8.53%
COc1ccc(CCNC(=O)c2cnn(-c3cccc(C)c3)c2C2CCNCC2)cc1OC | inactive: -13.1%
CN1C(=O)Cc2cc(S(=O)(=O)CCC(=O)Nc3ccc(Cl)cc3)ccc21 | inactive: -8.48%
CC(=O)c1ccc(NC(=O)c2cc3c([nH]c2=O)CC(c2ccccc2)CC3=O)cc1 (stereo unspecified) | inactive: -10.1%
CCOc1ccc2c(c1)c(=O)c(C(=O)c1ccccc1)cn2Cc1ccccc1F | inactive: -14.1%
COc1ccc(OC)c(CNS(=O)(=O)c2cc(-c3onc(C)c3C)ccc2C)c1 | inactive: -25.6%

SMILES | activity change, positive = activation
CCN(CC)C(=O)c1sc2c(c1C)c(=O)n(-c1ccc(C)c(C)c1)c(=O)n2CC(=O)Nc1ccc(OC)cc1OC | inactive: -21.6%
Cc1cc(F)ccc1NC(=O)CCS(=O)(=O)c1cc2c3c(c1)CCN3C(=O)CC2 | inactive: -1.54%
CCS(=O)(=O)N1CC(=O)N(c2cc(C)cc(C)c2)C(C)(C(=O)NC2CCCCC2)C1 (stereo unspecified) | inactive: -4.18%
Cc1cc(C)n2c(Nc3ccc4c(c3)OCCO4)c(-c3ccccc3)nc2n1 | inactive: -8.84%
COc1ccc(N2CCN(CCCNC(=O)c3nnc(Cc4ccccc4Cl)o3)CC2)cc1 | inactive: -25%
COc1ccc(/C=C/C(=O)Nc2cc(-c3nc4ccccc4o3)ccc2OC)cc1 | inactive: -16.9%
CC(=O)c1ccc(NC(=O)CSc2nnc(-c3ccncc3)n2-c2ccccc2)cc1 | inactive: -9.14%
Cc1ccc(S(=O)(=O)c2[nH]c(-c3ccccc3)nc2SC(C)C(=O)O)cc1 (stereo unspecified) | inactive: -7.12%
COc1cc2ncnc(Nc3cccc(Br)c3)c2cc1OC | inactive: -33.5%
COCCN1C(=O)N(c2cccc(OC)c2)C(=O)C1CC(=O)Nc1ccccc1 (stereo unspecified) | inactive: -18%
O=C(NCc1ccc(Cl)cc1)C(=O)NCC(c1ccc2c(c1)OCO2)N1CCOCC1 (stereo unspecified) | inactive: -17.8%
COc1cc2ccccc2cc1C(=O)N1CCN(c2nc3c(F)cccc3s2)CC1 | inactive: 8.89%
CCCCc1nn2c(=O)cc(COC(=O)c3cccc(NC(=O)c4cccs4)c3)nc2s1 | inactive: 3.68%
Cn1c(COc2ccccc2C(C)(C)C)nc2ccccc21 | inactive: -37.7%
COc1ccc(S(=O)(=O)c2cc3cc(C(C)(C)C)cc(O)c3oc2=O)cc1 | inactive: -15.1%
CCCCCn1c(=N)c(S(=O)(=O)c2ccc(C)cc2)cc2c(=O)n3cc(C)ccc3nc21 | inactive: 1.71%
CC(C)(CC(=O)NCc1ccc(Cl)cc1Cl)CC1=NS(=O)(=O)c2ccccc2N1 | inactive: -59.6%
COC(=O)c1ccc(NS(=O)(=O)c2ccc3c(c2)n(C)c(=O)c(=O)n3C)cc1 | inactive: -13.9%
CCOC(=O)c1ccc(CN(Cc2ccc(F)cc2)S(=O)(=O)c2ccc(F)c(C(=O)Nc3ccccc3C(F)(F)F)c2)cc1 | inactive: -13.4%

— PubChem BioAssay AID1508624 (National Center for Advancing Translational Sciences (NCATS), 2021)
